# Measurements as given in the BET-seq Pho4 binding data (Le et al. 2018).
# This is one part of the list. Values were computed here from the reads of four pooled replicates and scatter widely.
# Target: T1, Pho4 (S. cerevisiae) (UniProt P07270)
# T1 sequence: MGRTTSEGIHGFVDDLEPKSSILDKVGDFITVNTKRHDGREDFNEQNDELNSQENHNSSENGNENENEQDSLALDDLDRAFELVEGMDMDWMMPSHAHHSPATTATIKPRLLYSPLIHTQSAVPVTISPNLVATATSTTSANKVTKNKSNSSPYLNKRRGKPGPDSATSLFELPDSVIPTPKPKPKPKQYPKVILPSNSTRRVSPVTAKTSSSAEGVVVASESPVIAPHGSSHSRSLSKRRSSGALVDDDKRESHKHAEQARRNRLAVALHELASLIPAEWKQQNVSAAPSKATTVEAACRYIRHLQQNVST
# Assay: relative binding free energy (BET-seq); higher = weaker binding
# Details: reference: library average
row,Sequence,relative binding free energy
1,AGGATCACGTGTTGTG,0.17 kcal/mol
2,TTGCACACGTGATGTG,0.03 kcal/mol
3,TGTCACACGTGAGGGT,0.31 kcal/mol
4,ATGTTCACGTGATTTC,0.32 kcal/mol
5,ACGATCACGTGTAGGT,0.09 kcal/mol
6,GTGATCACGTGTTCTA,0.15 kcal/mol
7,TATGTCACGTGCAGAT,0.11 kcal/mol
8,GTAGTCACGTGACGGG,0.1 kcal/mol
9,GGTGGCACGTGTATGG,-0.02 kcal/mol
10,GTAATCACGTGTCTGT,0.1 kcal/mol
11,GGTAGCACGTGGCTTA,-0.22 kcal/mol
12,TGAGTCACGTGATGAG,0.31 kcal/mol
13,CTTTCCACGTGTGGTG,0.1 kcal/mol
14,GCTTACACGTGGAGGT,0.11 kcal/mol
15,CATGGCACGTGTAATG,0.08 kcal/mol
16,CATTGCACGTGAGAGT,0.21 kcal/mol
17,GTGTGCACGTGTGCGC,-0.02 kcal/mol
18,TATGCCACGTGGCTGT,-0.29 kcal/mol
19,AGTGTCACGTGATTGT,0.21 kcal/mol
20,TAAAGCACGTGTAATT,-0.03 kcal/mol
21,TGGTGCACGTGTAAGA,0.08 kcal/mol

row,Sequence,relative binding free energy
1,AGTGGCACGTGCATTG,-0.19 kcal/mol
2,AAGTACACGTGGGTAG,-0.09 kcal/mol
3,AGTTTCACGTGGGGCT,0.18 kcal/mol
4,GTTTGCACGTGTCAAT,0.06 kcal/mol
5,TGCTGCACGTGTTAAA,0.14 kcal/mol
6,TTGTTCACGTGACAAT,0.3 kcal/mol
7,TGTGTCACGTGAACTG,0.24 kcal/mol
8,ATTAGCACGTGTGTGC,-0.03 kcal/mol
9,TTTTGCACGTGCTGCA,-0.08 kcal/mol
10,GAATGCACGTGGGCGT,-0.14 kcal/mol
11,AGCAGCACGTGGTCGG,-0.12 kcal/mol
12,TGGATCACGTGAGTGT,0.35 kcal/mol
13,GATAACACGTGGGTAT,-0.04 kcal/mol
14,GTTGCCACGTGTGCGT,-0.04 kcal/mol
15,GTAATCACGTGAGTGT,0.3 kcal/mol
16,TCGGGCACGTGTGTCA,-0.14 kcal/mol
17,TCGTTCACGTGGGGCC,0.15 kcal/mol
18,TAGGTCACGTGGTTCC,0.14 kcal/mol
19,TTATACACGTGACTTG,0.23 kcal/mol
20,TTTACCACGTGTGTAA,0.01 kcal/mol
21,AGTTACACGTGAATGA,0.43 kcal/mol

row,Sequence,relative binding free energy
1,GAACTCACGTGTTGGG,0.27 kcal/mol
2,TGCGTCACGTGGCGTA,-0.03 kcal/mol
3,AGGAGCACGTGGGATA,-0.11 kcal/mol
4,AGTAGCACGTGCTGGG,-0.13 kcal/mol
5,AAAGGCACGTGTCGGT,-0.07 kcal/mol
6,TCTGTCACGTGGGTAA,0.04 kcal/mol
7,GGCAACACGTGAGGGT,0.25 kcal/mol
8,GAGGGCACGTGTCAAG,0.06 kcal/mol
9,AGTCTCACGTGAGGTG,0.29 kcal/mol
10,TGAATCACGTGGGTTC,-0.01 kcal/mol
11,GTTACCACGTGTGCGG,0.04 kcal/mol
12,GGTCGCACGTGAGGCA,0.29 kcal/mol
13,ATTAACACGTGCGTTT,-0.06 kcal/mol
14,AGGATCACGTGTTTGA,0.12 kcal/mol
15,TAAGTCACGTGGAAGA,0.18 kcal/mol
16,GGTGTCACGTGAGCAT,0.24 kcal/mol
17,GCTTGCACGTGGGTGA,-0.06 kcal/mol
18,GCAGGCACGTGATGGA,0 kcal/mol
19,AGTATCACGTGAGAGT,0.29 kcal/mol
20,GGTGGCACGTGGTTGT,-0.06 kcal/mol
21,TGTGCCACGTGCTGGT,-0.27 kcal/mol
